Laboratory results taken from paper PMC9224670.
No constants are given. Whether binding was seen depends on the method and setting. Some results given as binding are weak or reduced against the parent protein; the word gives no strength. Tags and fused reporters may be left off the sequences shown.

T1: BD-FRH (Metarhizium robertsii FRQ-interacting RNA helicase FRH in the bait vector pGBKT7) (Metarhizium robertsii) (UniProt E9F8I5)
T1 sequence: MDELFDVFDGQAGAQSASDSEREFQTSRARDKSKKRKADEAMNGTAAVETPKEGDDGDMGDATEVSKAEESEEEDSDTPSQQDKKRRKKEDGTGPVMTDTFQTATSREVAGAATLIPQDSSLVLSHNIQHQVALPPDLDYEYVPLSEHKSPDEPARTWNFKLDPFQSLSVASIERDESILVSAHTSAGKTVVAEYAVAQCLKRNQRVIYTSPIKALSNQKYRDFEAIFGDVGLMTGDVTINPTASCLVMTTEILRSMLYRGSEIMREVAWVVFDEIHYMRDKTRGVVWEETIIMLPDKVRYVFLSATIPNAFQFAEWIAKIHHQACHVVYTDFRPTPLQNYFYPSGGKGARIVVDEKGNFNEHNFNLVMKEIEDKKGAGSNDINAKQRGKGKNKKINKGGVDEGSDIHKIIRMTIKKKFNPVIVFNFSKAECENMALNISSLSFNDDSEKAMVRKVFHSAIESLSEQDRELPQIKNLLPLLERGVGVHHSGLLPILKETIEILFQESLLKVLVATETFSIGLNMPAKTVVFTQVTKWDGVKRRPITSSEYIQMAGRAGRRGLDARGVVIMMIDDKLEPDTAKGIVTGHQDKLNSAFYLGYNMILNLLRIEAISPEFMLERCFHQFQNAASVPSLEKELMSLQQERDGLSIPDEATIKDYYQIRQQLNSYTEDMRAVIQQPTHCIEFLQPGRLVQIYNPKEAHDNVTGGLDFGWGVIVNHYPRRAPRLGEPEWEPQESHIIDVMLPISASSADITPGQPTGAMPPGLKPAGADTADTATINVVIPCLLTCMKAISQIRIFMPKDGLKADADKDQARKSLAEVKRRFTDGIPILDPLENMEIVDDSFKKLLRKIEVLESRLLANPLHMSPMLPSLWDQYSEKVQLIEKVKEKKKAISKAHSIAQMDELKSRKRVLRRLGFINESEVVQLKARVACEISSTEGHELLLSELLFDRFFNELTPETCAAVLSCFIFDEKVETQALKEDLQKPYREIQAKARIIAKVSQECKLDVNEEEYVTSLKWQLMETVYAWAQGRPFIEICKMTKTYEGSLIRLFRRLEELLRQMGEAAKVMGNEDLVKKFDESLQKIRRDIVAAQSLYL

T2: BD-FRQ (Metarhizium robertsii frequency protein FRQ in the bait vector pGBKT7) (Metarhizium robertsii) (UniProt E9EXC4)
T2 sequence: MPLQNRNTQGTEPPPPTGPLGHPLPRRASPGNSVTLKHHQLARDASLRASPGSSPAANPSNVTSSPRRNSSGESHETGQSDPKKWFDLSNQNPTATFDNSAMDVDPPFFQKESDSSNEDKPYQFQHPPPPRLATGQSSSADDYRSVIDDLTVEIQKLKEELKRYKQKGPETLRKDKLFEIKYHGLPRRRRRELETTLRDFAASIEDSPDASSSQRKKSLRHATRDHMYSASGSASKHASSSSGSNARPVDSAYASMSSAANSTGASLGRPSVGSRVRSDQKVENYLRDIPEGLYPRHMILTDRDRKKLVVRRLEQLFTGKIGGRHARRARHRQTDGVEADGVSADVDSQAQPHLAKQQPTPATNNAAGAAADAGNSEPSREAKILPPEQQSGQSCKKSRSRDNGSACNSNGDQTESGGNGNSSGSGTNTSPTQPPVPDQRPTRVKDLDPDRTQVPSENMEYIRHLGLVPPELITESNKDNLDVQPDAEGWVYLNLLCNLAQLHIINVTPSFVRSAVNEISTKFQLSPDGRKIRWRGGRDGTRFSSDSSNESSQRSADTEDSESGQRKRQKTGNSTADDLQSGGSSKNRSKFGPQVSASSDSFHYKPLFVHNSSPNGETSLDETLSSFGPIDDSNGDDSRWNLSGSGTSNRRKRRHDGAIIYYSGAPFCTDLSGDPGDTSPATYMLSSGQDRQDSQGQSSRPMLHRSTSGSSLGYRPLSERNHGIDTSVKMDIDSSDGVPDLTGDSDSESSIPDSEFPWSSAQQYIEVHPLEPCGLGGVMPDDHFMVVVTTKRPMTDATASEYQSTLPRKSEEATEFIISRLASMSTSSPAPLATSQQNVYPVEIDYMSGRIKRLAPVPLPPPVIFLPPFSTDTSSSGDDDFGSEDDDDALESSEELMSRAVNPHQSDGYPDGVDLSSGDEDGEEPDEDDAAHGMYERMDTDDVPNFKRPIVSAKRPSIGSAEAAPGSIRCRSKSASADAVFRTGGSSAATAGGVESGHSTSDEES


Columns and labels:
[1] = target: T1, BD-FRH (Metarhizium robertsii FRQ-interacting RNA helicase FRH in the bait vector pGBKT7) (Metarhizium robertsii); assay: two-hybrid; Matchmaker GAL4 Two-Hybrid System 3; preys in pGADT7 (AD), baits in pGBKT7 (BD); Y187 x Y2HGold diploids spotted (10^5, 10^6, 10^7 cells/mL) on SD/-Leu/-Trp/X-α-Gal/AbA and SD/-Leu/-Trp/-Ade/-His/X-α-Gal/AbA plates, 3 d at 30 °C
[2] = target: T2, BD-FRQ (Metarhizium robertsii frequency protein FRQ in the bait vector pGBKT7) (Metarhizium robertsii); assay: as above

Row | Binder | binding [1] | binding [2]
1 | AD-FRQ (Metarhizium robertsii frequency protein FRQ in the prey vector pGADT7) (protein, UniProt E9EXC4 1-1005) MPLQNRNTQGTEPPPPTGPLGHPLPRRASPGNSVTLKHHQLARDASLRASPGSSPAANPSNVTSSPRRNSSGESHETGQSDPKKWFDLSNQNPTATFDNSAMDVDPPFFQKESDSSNEDKPYQFQHPPPPRLATGQSSSADDYRSVIDDLTVEIQKLKEELKRYKQKGPETLRKDKLFEIKYHGLPRRRRRELETTLRDFAASIEDSPDASSSQRKKSLRHATRDHMYSASGSASKHASSSSGSNARPVDSAYASMSSAANSTGASLGRPSVGSRVRSDQKVENYLRDIPEGLYPRHMILTDRDRKKLVVRRLEQLFTGKIGGRHARRARHRQTDGVEADGVSADVDSQAQPHLAKQQPTPATNNAAGAAADAGNSEPSREAKILPPEQQSGQSCKKSRSRDNGSACNSNGDQTESGGNGNSSGSGTNTSPTQPPVPDQRPTRVKDLDPDRTQVPSENMEYIRHLGLVPPELITESNKDNLDVQPDAEGWVYLNLLCNLAQLHIINVTPSFVRSAVNEISTKFQLSPDGRKIRWRGGRDGTRFSSDSSNESSQRSADTEDSESGQRKRQKTGNSTADDLQSGGSSKNRSKFGPQVSASSDSFHYKPLFVHNSSPNGETSLDETLSSFGPIDDSNGDDSRWNLSGSGTSNRRKRRHDGAIIYYSGAPFCTDLSGDPGDTSPATYMLSSGQDRQDSQGQSSRPMLHRSTSGSSLGYRPLSERNHGIDTSVKMDIDSSDGVPDLTGDSDSESSIPDSEFPWSSAQQYIEVHPLEPCGLGGVMPDDHFMVVVTTKRPMTDATASEYQSTLPRKSEEATEFIISRLASMSTSSPAPLATSQQNVYPVEIDYMSGRIKRLAPVPLPPPVIFLPPFSTDTSSSGDDDFGSEDDDDALESSEELMSRAVNPHQSDGYPDGVDLSSGDEDGEEPDEDDAAHGMYERMDTDDVPNFKRPIVSAKRPSIGSAEAAPGSIRCRSKSASADAVFRTGGSSAATAGGVESGHSTSDEES | binds | –
2 | AD-WC1 (Metarhizium robertsii white collar protein WC1 in the prey vector pGADT7) (protein, UniProt E9EWQ4 1-1004) MDDYYKTNALPPQEGQRQMPQQHEGQQQQQQQPSGNVIDMINRSSVSGSQMPLQPPPSAMPQLLQNQPMISGDSLDDIIRNNHTEMHRRKSMPHAYGSPLMQDENPRRMSSIAASEDVMAFDPSQHDLGNFQFSQPVGSSFHGINPSLEMTDQMGGFVTDATDYSGISADLIGPMNPPPFGNVELSQMPNEPSLSLFPPSPVPGAGSGVRPMNSGFVSGQIPNLSATFGTEPAPSSSTLTVTSNTLPGSIDDHPDGMMHISTSQLNAVNPPASRVPETMAANPVSSNLGQPLPHSLSRHISSESGITQPSSTSGPTTPATTSTPRESKEKTIYSKSGFDMLKALWLVATRKDPKIHLGAVDMSCAFVVCDVTMNDCPIIYVSDNFQNLTGYSRHEIVGQNCRFLQAPDGKVEAGSKREFVDDGAVYNLKNMIQEGREVQQSLINYRKGGKPFLNLLTMIPIPWDTDDIRYFIGFQIDLVECPDAISGQELGGVKVNYKHNDIGQYIWTPPASSQWQPENGQTLGVDDVSTLLQQFSPKGLVSDWHKQSWDKMLLENTDDVVHVLSLKGLFLYLSPSSKRVLEYDAIDLVGNSLSSVCHPSDIVPVTRELKDATASAQVNIVFRIRRKQSGYTWFESHGSLFVEQGKGRKCLILVGRKRPVFALSRKNLESNGGIGDSELWTKLSTSGMFLFVSSNVRSLLDLQPESLVGTSIQELMRKESRPDFGRKIEAARRGKIVSCEHEVQNRRGQGLRALTILYPGDAPEGQKPSFLLAQTKLVKAKNVVLATATSNSKAASTSSQSNAVPELHSGAGQVSQPPGGGLPLGTQDAALAALAAEDNIFDELRTTKCSSWQFELRQMEKVNRILAEELGGLLSNKKKRKRRKGVGNMTGRVSPRNSSRGGNNGNGDSQSKKSPSPIHSSPLHKELASENPTSQAVVAKGDTDETDMLNPSQLGNHVSNEASESNLVQRQIMVMPPPSQPSLSSGAAGSGMTSIREEHEASQS | no binding | binds
3 | AD-WC2 (Metarhizium robertsii white collar protein WC2 in the prey vector pGADT7) (protein, UniProt E9F591 1-445) MDPFGDVSMNIDSGNGAQVMPVPSSMPANTNEDVAMMNDADAQASSSNVAQPQDDPLAMAVEKVPGAGPLPPRTFAQMSLNGGGSSGSASTLTDFTKRRNWPAKVVEELKDFLHILDANGRIKYASGSIFGISGYTAAEVQDVFLKDFIHPDDQGVFVAELNESIASGSPLRMFYRFKTKSGNYTVLETVGHAHIAAARFAPNPNNQSPFCQAVFMMSRTYPTKNAGLLDSFLEHKMENERLRRRISELRREEEAETEESNRQWVQSQEGRSDMTPSETTGTSTPFFRNASSTSDMQADGSALTRENLEGVAAGRNSDSLGDKMARYEGSTHAETIELLTGLRYLEGERSRGITTGGSSPTLIRGDAGIAIPIDRDARAGEKKKKLKTAEEYVCTDCGTLDSPEWRKGPNGPKTLCNACGLRWAKKEKKKTNASQKGAVADQMMG | no binding | no binding
